{"source": "PubChem BioAssay AID662", "about": "(National Center for Advancing Translational Sciences (NCATS), 2007)", "note": "Screen size: about 71,000 compounds; about 1,800 (2.5%) were called active. The inconclusive results got no clear call from the source; some entries with a clear call stand among them for comparison. The call rests on the fitted dose curve; in most records, active means well fitted activation curve with a large enough effect in the signal ratio, with a control signal flat (not every such curve was filed as active); inconclusive means small, poorly fitted or top-dose-only effect, or effect the other way, or a change in a side signal; inactive means flat fitted curve, though single readings scatter; the % refers to the signal ratio. Potencies of inconclusive entries are doubtful fits and often do not repeat. Potency means the concentration at half of the fitted maximal effect; tags describe the fitted curve by direction and shape.", "data": [{"test": "Cell signaling CRE-BLA (Fsk stim); on activity change, negative = inhibition: % of control where 0% means no effect", "details": "CHO CRE-bla reporter (cAMP response element driving beta-lactamase), forskolin EC10, beta-lactamase ratio; activity change, negative = inhibition: at 38.2 µM (top of the series) unless noted", "procedure,_shortened": "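qHTS titration format; CRE-bla CHO reporter; stimulus EC10 NKH 477, a water-soluble forskolin. Read: CCF4 460/530 nm ratio. Potency expressed as AC50 for activators or inhibitors.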", "values": [{"compound": "CCc1nc2scc(-c3ccccc3)c2c(=O)n1N", "Potency": "inconclusive: 2.51 µM [rising, full curve, poor fit]"}, {"compound": "O=C(CN1CCN(S(=O)(=O)c2ccc(F)cc2)CC1)Nc1ccccc1F", "activity change, negative = inhibition": "inconclusive: -18%"}, {"compound": "COc1ccc(NC(=O)CCCN2C(=O)C3C4C=CC(C4)C3C2=O)c(OC)c1", "note": "(stereo not given)", "activity change, negative = inhibition": "inconclusive: 23.3%"}, {"compound": "COc1ccccc1NC(=O)c1cn(C)c(=O)c2cc(OC)c(OC)cc12", "Potency": "inconclusive: 2 µM [rising, full curve]"}, {"compound": "CCOC(=O)CCCCC(=O)c1[nH]c(=O)[nH]c1Cn1ccnc1", "activity change, negative = inhibition": "inconclusive: -1.37%"}, {"compound": "COc1cccc(-n2c(Cc3cc(=O)[nH]c(=O)[nH]3)nnc2SCC(=O)NC2CCCC2)c1", "activity change, negative = inhibition": "inactive: -4.87%"}, {"compound": "COc1ccccc1N1CCN(C(CNS(=O)(=O)c2ccccc2)c2cccnc2)CC1", "note": "(stereo not given)", "activity change, negative = inhibition": "inconclusive: -14.1%"}, {"compound": "O=C(c1ccc2c(c1)N(Cc1ccc(F)cc1)C(=O)CS2)N1CCOCC1", "activity change, negative = inhibition": "inconclusive: -6.1%"}, {"compound": "O=S(=O)(Nc1ccc(N2CCOCC2)nn1)c1ccccc1", "activity change, negative = inhibition": "inconclusive: 17.1%"}, {"compound": "Cc1cc(NC(=O)CSc2nnc(COc3ccccc3)o2)no1", "activity change, negative = inhibition": "inconclusive: 19%"}, {"compound": "CC(=O)c1ccc(NC(=O)N2CCN(c3cccc(Cl)c3)CC2)cc1", "Potency": "inconclusive: 10 µM [falling, partial curve]"}, {"compound": "CC(=O)OCCNc1cc(N2CCN(C)CC2)c2noc3c2c1C(=O)c1ccccc1-3", "Potency": "inconclusive: 10 µM [rising, single point]"}, {"compound": "CCOc1cccc(C2c3c(oc4cc(C)c(C)cc4c3=O)C(=O)N2CCCN(C)C)c1", "note": "(stereo not given)", "activity change, negative = inhibition": "inactive: -8.66%"}, {"compound": "CCCN1c2cccc3cccc(c23)S1(=O)=O", "activity change, negative = inhibition": "inactive: -14.2%"}, {"compound": "CNNCc1ccc(C(=O)NC(C)C)cc1", "activity change, negative = inhibition": "inactive: -1.2% [at 17.1 µM]"}, {"compound": "OC(CCl)CCl", "activity change, negative = inhibition": "inactive: 1.13%"}, {"compound": "COc1cccc(Nc2ncc3nc(-c4ccc(F)cc4)c(=O)n(C[C@H]4CCCO4)c3n2)c1", "Potency": "inconclusive: 3.98 µM [rising, partial curve, poor fit]"}, {"compound": "CCNc1ncc2nc(-c3ccc(Cl)cc3)c(=O)n(C)c2n1", "Potency": "inconclusive: 1.26 µM [rising, full curve]"}, {"compound": "COc1ccc(CCNC(=O)CC2Nc3cc(C)c(C)cc3NC2=O)cc1OC", "note": "(stereo not given)", "activity change, negative = inhibition": "inactive: 1.29%"}, {"compound": "O=c1c(-c2ccc(F)cc2)nc2cnc(Oc3cccc(Cl)c3)nc2n1C1CC1", "activity change, negative = inhibition": "inactive: 10.5%"}, {"compound": "COC(=O)c1cc(=O)n(Cc2ccc3c(c2)OCO3)c(=Nc2ccccc2)s1", "activity change, negative = inhibition": "inconclusive: -4.55%"}, {"compound": "CC(=O)c1ccc(Nc2ncnc3c2oc2ccccc23)cc1", "Potency": "inconclusive: 1.26 µM [rising, full curve, poor fit]"}, {"compound": "C=CCc1ccccc1OC[C@H](O)CNC(C)C", "Potency": "inactive"}, {"compound": "COc1ccccc1Cn1cnc2cccnc21", "activity change, negative = inhibition": "inconclusive: -26.8%"}, {"compound": "COc1cc(C(=O)OCC(=O)Nc2c(F)c(F)c(F)c(F)c2F)cc(OC)c1OC", "Potency": "inconclusive: 7.94 µM [rising, partial curve]"}, {"compound": "CC1(C)N(O)CC(c2cccs2)=[N+]1[O-]", "Potency": "inconclusive: 0.02 µM [rising, full curve, poor fit]"}, {"compound": "Cn1c(C(=O)Nc2ccc3c(c2)OCO3)cc2sccc21", "activity change, negative = inhibition": "inconclusive: -15.1%"}, {"compound": "O=C(c1ccccc1F)N1CCN(Cc2cccc(Cl)c2)CC1", "activity change, negative = inhibition": "inactive: -5.03%"}, {"compound": "CCOC(=O)c1c(C)oc2ccc(OCC(N)=O)cc12", "activity change, negative = inhibition": "inconclusive: 25.4%"}, {"compound": "CCOc1ccccc1NS(=O)(=O)c1c(C)noc1C", "activity change, negative = inhibition": "inconclusive: 3.6%"}, {"compound": "NCCc1ccn[nH]1", "activity change, negative = inhibition": "inactive: -9.88% [at 17.1 µM]"}, {"compound": "Brc1cccc(-c2nnc(SCc3ccon3)n2-c2ccccc2)c1", "Potency": "inconclusive: 7.94 µM [rising, partial curve]"}, {"compound": "O=c1cc(NCc2ccco2)[nH]c(=O)n1-c1ccc(Br)cc1", "activity change, negative = inhibition": "inactive: 7.33%"}, {"compound": "Nc1nc2nccc(-c3ccc(Cl)cc3)n2n1", "activity change, negative = inhibition": "inactive: 16.8%"}, {"compound": "Cc1cc(C(F)F)n2ncc(C(=O)NC3CCCCCC3)c2n1", "Potency": "inconclusive: 25.1 µM [rising, single point]"}, {"compound": "CC1=C(/C=C/C(C)=C/C=C/C(C)=C/C(=O)Nc2ccc(O)cc2)C(C)(C)CCC1", "activity change, negative = inhibition": "inconclusive: -10.9%"}, {"compound": "C[C@H](NC(=O)Nc1ccccc1F)C(=O)O", "activity change, negative = inhibition": "inconclusive: 25.4%"}, {"compound": "COC(=O)c1ccc(OC)c(CSc2nnc(COc3ccc(Cl)cc3)o2)c1", "activity change, negative = inhibition": "inconclusive: 6.13%"}, {"compound": "CCc1c(C)nc2ncnn2c1N1CCCC(C(=O)NCc2ccc3c(c2)OCO3)C1", "note": "(stereo not given)", "Potency": "inconclusive: 12.6 µM [rising, partial curve]"}, {"compound": "Cc1occc1-c1nnc(SCC(=O)Nc2ccccc2)n1C(C)c1ccccc1", "note": "(stereo not given)", "activity change, negative = inhibition": "inactive: 4.19%"}, {"compound": "O=C(NCCCN1CCOCC1)c1cc(-c2ccc(Br)cc2)on1", "activity change, negative = inhibition": "inconclusive: 7.44%"}, {"compound": "O=C(CSc1nnc(-c2cccc(S(=O)(=O)N3CCCCC3)c2)o1)c1ccc[nH]1", "activity change, negative = inhibition": "inconclusive: -8.15%"}, {"compound": "CN(C)S(=O)(=O)c1ccc(NS(=O)(=O)/C=C/c2ccccc2)cc1", "activity change, negative = inhibition": "inactive: 12.1%"}, {"compound": "Cc1ccccc1S(=O)(=O)Cc1ccc(C(=O)NCc2cccnc2)o1", "activity change, negative = inhibition": "inactive: 14.7%"}, {"compound": "CNc1nc(-c2ccoc2)nc2ccccc12", "activity change, negative = inhibition": "inconclusive: 28.2%"}, {"compound": "COCCn1c(SCC(=O)Nc2ncc(Cl)c(C)c2Cl)nc2ccccc21", "Potency": "inconclusive: 15.8 µM [rising, single point]"}, {"compound": "COc1cccc(/C=N/n2c(SC)nnc2-c2ccccc2)c1O", "Potency": "inconclusive: 10 µM [rising, single point]"}, {"compound": "CCCOC(=O)c1ccc(Oc2c(-c3ccc(OCC)cc3O)n[nH]c2C)cc1", "activity change, negative = inhibition": "inconclusive: 52.5% [cytotoxic]"}, {"compound": "CN1C(=O)c2ccccc2N(C)C1c1cccs1", "note": "(stereo not given)", "activity change, negative = inhibition": "inactive: 0.0774%"}, {"compound": "O=c1c(N2CCOCC2)nsnc1N1CCOCC1", "Potency": "inconclusive: 5.01 µM [rising, single point]"}, {"compound": "O=C(Nc1ccc(Cl)cc1C(=O)O)c1ccc2c(c1)C(=O)N(Cc1ccco1)C2=O", "activity change, negative = inhibition": "inactive: -17.3%"}, {"compound": "CC(C)C(=O)N(Cc1cc2ccccc2[nH]c1=O)C(C)C", "activity change, negative = inhibition": "inactive: 0.807%"}, {"compound": "Cc1cc(NCCN(C)C)n2nc(-c3cccs3)cc2n1", "activity change, negative = inhibition": "inconclusive: 27.8%"}, {"compound": "O=S(=O)(c1ccccc1)c1nc(-c2ccco2)oc1NCCCn1ccnc1", "Potency": "inconclusive: 3.16 µM [rising, single point]"}, {"compound": "CCC(=O)Nc1cccc(NC(=O)c2cc3ccccc3o2)c1", "activity change, negative = inhibition": "inconclusive: -26.4%"}]}]}
